B1: TEV protease; numbered along this chain (parent)
chain: MGESLFKGPRDYNPISSSICHLTNESDGHTTSLYGIGFGPFIITNKHLFRRNNGTLVVQSLHGVFKVKDTTTLQQHLVDGRDMIIIRMPKDFPPFPQKLKFREPQREERICLVTTNFQTKSMSSMVSDTSCTFPSGDGIFWKHWIQTKDGQCGSPLVSTRDGFIVGIHSASNFTNTNNYFTSVPKNFMELLTNQEAQQWVSGWRLNADSVLWGGHKVFMVKPEEPFQPVKEATQL

The list shows a part of the results. Sequences were assembled here from the parent chain. Inactive controls read about 0.05.

In this experiment the parent is B1. In words: raw area under fraction-flipped curve 0-4 h after induction (AUC4h, not background-subtracted), DNA-recorder readout of cleavage of the substrate (dimensionless); higher = more cleavage of the substrate by the protease variant. The note with it: temperature: 34 °C; time window: 0-4 h after rhamnose induction.
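Note: Bxb1 expression induced with 0.2% (w/v) L-rhamnose at OD600 near 0.5, cultures sampled hourly, flipped fraction per protease–substrate barcode pair counted by paired-end Illumina sequencing.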

For MGESLFKGPRDYNPISSSICHLTNESDGHTTSLYGIGFGPFIITNKHLFRRNNGTLVVQSLHGVFKVKDTTTLFQHLVDGRDMIIIRMPKDFPPFPQKLKFREPQREERICLVTTNFQTKSMSSMVSDTSCTFPSGDGIFWKHWIQTKDGQCGSPLVSTRDGFIVGIHSASNFTNTNNYFTSVPKNFMELLTNQEAQQWVSGWRLNADSVLWGGHKVFMVKPEEPFQPVKEATQL [Q74F], the “area with substrate ENLYFDS” value was 0.0586, the “area with substrate ENLYFES” value came out at 0.0584, the “area with substrate ENLYFFS” value stood at 0.0736 and the “area with substrate ENLYFIS” value worked out at 0.0476. Further, the “area with substrate ENLYFKS” value came to 0.0602, the “area with substrate ENLYFLS” value came out at 0.0557, the “area with substrate ENLYFNS” value was 0.0591 and the “area with substrate ENLYFPS” value is 0.0571. The “area with substrate ENLYFRS” value amounted to 0.0606, the “area with substrate ENLYFTS” value came to 0.0565, the “area with substrate ENLYFWS” value stood at 0.0488 and the “area with substrate ENLYFYS” value is 0.0729.
In the case of MGESLFKGPRDYNPISSSICHLTNESTGHTTSLYGIGFGPFIITNKHLFRRNNGTLVVQSLHGVFKVKDTTTLQQHLVDGRDMIIIRMPKDFPPFPQKLKFREPQREERICLVTTNFQTKSMSSMVSDTSCTFPSGDGIFWKHWIQTKDGQCGSPLVSTRDGFIVGIHSASNFTNTNNYFTSVPKNFMELLTNQEAQQWVSGWRLNADSVLWGGHKVFMVKPEEPFQPVKEATQL [D27T], the “area with substrate ENLYFDS” value came out at 0.0452, the “area with substrate ENLYFFS” value amounted to 0.0621, the “area with substrate ENLYFGS” value was found to be 0.0553 and the “area with substrate ENLYFMS” value worked out at 0.0536. Besides, the “area with substrate ENLYFNS” value stood at 0.0729, the “area with substrate ENLYFPS” value came out at 0.0772, the “area with substrate ENLYFSS” value was determined as 0.0643 and the “area with substrate ENLYFTS” value was 0.0548. Also, the “area with substrate ENLYFVS” value came to 0.0573, the “area with substrate ENLYFWS” value was 0.0516 and the “area with substrate ENLYFYS” value amounted to 0.0711.
In the case of MGESLFKGPRDYNPISSSICHLTNESDGHTTSLYPIGFGPFIITNKHLFRRNNGTLVVQSLHGVFKVKDTTTLQQHLVDGRDMIIIRMPKDFPPFPQKLKFREPQREERICLVTTNFQTKSMSSMVSDTSCTFPSGDGIFWKHWIQTKDGQCGSPLVSTRDGFIVGIHSASNFTNTNNYFTSVPKNFMELLTNQEAQQWVSGWRLNADSVLWGGHKVFMVKPEEPFQPVKEATQL [G35P], the “area with substrate ENLYFDS” value was 0.0413, the “area with substrate ENLYFES” value was determined as 0.0456, the “area with substrate ENLYFFS” value is 0.0483 and the “area with substrate ENLYFRS” value is 0.036.
MGESLFKGPRDYNPISSSICHLTNESDGHTTSLYGIGFGPFIITNKHLFRRNNGTLVVQSLHGVFKVKDTTTLQQHLVDGEDMIIIRMPKDFPPFPQKLKFREPQREERICLVTTNFQTKSMSSMVSDTSCTFPSGDGIFWKHWIQTKDGQCGSPLVSTRDGFIVGIHSASNFTNTNNYFTSVPKNFMELLTNQEAQQWVSGWRLNADSVLWGGHKVFMVKPEEPFQPVKEATQL [R81E]: the “area with substrate ENLYFDS” value came out at 0.0528, the “area with substrate ENLYFES” value turned out to be 0.0496, the “area with substrate ENLYFFS” value is 0.0561 and the “area with substrate ENLYFGS” value was determined as 0.0552. The “area with substrate ENLYFIS” value was determined as 0.0544, the “area with substrate ENLYFMS” value stood at 0.0523, the “area with substrate ENLYFNS” value was 0.0566 and the “area with substrate ENLYFPS” value was found to be 0.0603. For the same variant, the “area with substrate ENLYFRS” value came out at 0.0567, the “area with substrate ENLYFSS” value was 0.0667, the “area with substrate ENLYFTS” value worked out at 0.0573 and the “area with substrate ENLYFYS” value was 0.0567.
On to MGESLFKGPRDYNPISSSICHLTNESDGHTTSLYGIGFGPFIITNKHLFRRNNGTLVVQSLHGVFKVKDTTTLQQHLVDGRDMIIIRMPKDFPPFPQKLKFREPQREERICLVTTNFQTKSMSSMVHDTSCTFPSGDGIFWKHWIQTKDGQCGSPLVSTRDGFIVGIHSASNFTNTNNYFTSVPKNFMELLTNQEAQQWVSGWRLNADSVLWGGHKVFMVKPEEPFQPVKEATQL [S127H], for which the “area with substrate ENLYFDS” value is 0.0568, the “area with substrate ENLYFES” value was 0.0668, the “area with substrate ENLYFFS” value was found to be 0.0788 and the “area with substrate ENLYFHS” value stood at 0.0742. Moreover, the “area with substrate ENLYFIS” value was 0.0558, the “area with substrate ENLYFMS” value was found to be 0.0699, the “area with substrate ENLYFNS” value stood at 0.123 and the “area with substrate ENLYFPS” value amounted to 0.0687. Also, the “area with substrate ENLYFRS” value was 0.0644, the “area with substrate ENLYFSS” value is 0.0544, the “area with substrate ENLYFTS” value amounted to 0.0562 and the “area with substrate ENLYFVS” value is 0.0735. Further, the “area with substrate ENLYFWS” value is 0.0536 and the “area with substrate ENLYFYS” value is 0.0632.
MGESLFKGPRDYNRISSSICHLTNESDGHTTSLYGIGFGPFIITNKHLFRRNNGTLVVQSLHGVFKVKDTTTLQQHLVDGRDMIIIRMPKDFPPFPQKLKFREPQREERICLVTTNFQTKSMSSMVSDTSCTFPSGDGIFWKHWIQTKDGQCGSPLVSTRDGFIVGIHSASNFTNTNNYFTSVPKNFMELLTNQEAQQWVSGWRLNADSVLWGGHKVFMVKPEEPFQPVKEATQL [P14R]: the “area with substrate ENLYFDS” value stood at 0.0658, the “area with substrate ENLYFES” value was 0.0636, the “area with substrate ENLYFFS” value stood at 0.072 and the “area with substrate ENLYFGS” value is 0.0603. Besides, the “area with substrate ENLYFIS” value came to 0.0638, the “area with substrate ENLYFKS” value was found to be 0.0538, the “area with substrate ENLYFMS” value was 0.07 and the “area with substrate ENLYFNS” value was 0.046. In addition, the “area with substrate ENLYFPS” value is 0.0731, the “area with substrate ENLYFTS” value was determined as 0.0513, the “area with substrate ENLYFVS” value was determined as 0.0441 and the “area with substrate ENLYFWS” value turned out to be 0.0555.
As to MGESLFKGPRDYNPISSSICHLTNESDGHTTSLYGIGFGPFIITNKHLFRRNNGTLVVQSLHGVFKVKDTTTLQQHLVDGRDMIIIRMPKDFPPFPQKLKFREPQREERICLVTTNFQTKSMSSMVSDTSCTFPSGDGIFWKHWIQTKDGQCGSPLVSTRDGFIVGIHSASNFTNTNNYFTSVPKNFMELLTNQEAQQWVSGWRLNADSVLWGGHKVFMVDPEEPFQPVKEATQL [K221D], the “area with substrate ENLYFCS” value stood at 0.0646, the “area with substrate ENLYFFS” value was 0.0729, the “area with substrate ENLYFHS” value amounted to 0.0603 and the “area with substrate ENLYFIS” value was determined as 0.0505. The “area with substrate ENLYFLS” value was 0.0426, the “area with substrate ENLYFMS” value is 0.0623, the “area with substrate ENLYFNS” value is 0.0562 and the “area with substrate ENLYFPS” value worked out at 0.0622. Also, the “area with substrate ENLYFSS” value was 0.0526, the “area with substrate ENLYFVS” value amounted to 0.0546, the “area with substrate ENLYFWS” value was found to be 0.0578 and the “area with substrate ENLYFYS” value amounted to 0.0685.
On to MGESLFKGPRDYNPISSSICHLTNESDGHTTSLYGIGFGPFIITNKHLFRRNNGTLVVQSLHGVFKVKDTTTLQQHLVDGRDMIIIRMPKDFPPFPQKLKFREPQREERICLVTTNFQTKSMSSMVSDTSCTFPSGDGIFWKLWIQTKDGQCGSPLVSTRDGFIVGIHSASNFTNTNNYFTSVPKNFMELLTNQEAQQWVSGWRLNADSVLWGGHKVFMVKPEEPFQPVKEATQL [H143L], for which the “area with substrate ENLYFDS” value turned out to be 0.0422, the “area with substrate ENLYFHS” value amounted to 0.0617, the “area with substrate ENLYFKS” value amounted to 0.0602 and the “area with substrate ENLYFLS” value was 0.0666. In addition, the “area with substrate ENLYFMS” value is 0.0583, the “area with substrate ENLYFNS” value came to 0.058, the “area with substrate ENLYFPS” value worked out at 0.0533 and the “area with substrate ENLYFSS” value was determined as 0.0896. The “area with substrate ENLYFTS” value came out at 0.0548 and the “area with substrate ENLYFYS” value was 0.0536.
In the case of MGESLFKGPRDYNPISSIICHLTNESDGHTTSLYGIGFGPFIITNKHLFRRNNGTLVVQSLHGVFKVKDTTTLQQHLVDGRDMIIIRMPKDFPPFPQKLKFREPQREERICLVTTNFQTKSMSSMVSDTSCTFPSGDGIFWKHWIQTKDGQCGSPLVSTRDGFIVGIHSASNFTNTNNYFTSVPKNFMELLTNQEAQQWVSGWRLNADSVLWGGHKVFMVKPEEPFQPVKEATQL [S18I], the “area with substrate ENLYFDS” value is 0.0486, the “area with substrate ENLYFES” value was determined as 0.0745, the “area with substrate ENLYFFS” value came out at 0.0526 and the “area with substrate ENLYFGS” value turned out to be 0.0686. Moreover, the “area with substrate ENLYFHS” value amounted to 0.0523, the “area with substrate ENLYFIS” value was 0.0443, the “area with substrate ENLYFKS” value amounted to 0.0581 and the “area with substrate ENLYFMS” value is 0.0648. Besides, the “area with substrate ENLYFNS” value was found to be 0.068, the “area with substrate ENLYFSS” value is 0.0474, the “area with substrate ENLYFTS” value worked out at 0.0368 and the “area with substrate ENLYFVS” value stood at 0.0526. Besides, the “area with substrate ENLYFWS” value turned out to be 0.0409.
